Laboratory results from the RNAGym collection of RNA variant scans (doi:10.7554/elife.90254).
Read counts are not given, so values of variants with three or more changes are uncertain.

B1: OR4K15 (parent)
chain: GUUAACGGUCAUAGGCCAUGGAAACUAGGAGCACCAUUUCGCUGCCAGUGAAGAAAUGAACAAAGAAAAUCUGGGCCAGGCAGGCAUCAAAAGAAAUAGUCUUGCGCUCAACCAGAAAGUCUGUAAUCAUUUUAAGGGUA

Variants of: B1
Assay: self-cleavage, relative activity (ratio to wild type); higher = more cleavage; in vitro, sequencing; the parent is a self-cleaving ribozyme

| Variant | self-cleavage |
| --- | --- |
| GUCAACGGUCAUAGGCCAUGGAAACUAGGAGCACCAUUUCGCUGCCAAUGAAGAAAUGAACAAAGAAAAUCUGGGCCAGGCAGGCAUCAAAAGAAAUAGUCUUGCGCCCAACCAGAAAGUCUGUAAUCAUUUUAAGGGUA [U3C G48A U108C] | 0.02 |
| GUCAACGGUCACAGGCCAUGGAAACUAGGAGCACCACUUCGCUGCCAGUGAAGAAAUGAACGAAGAAAAUCUGGGCCAGGCAGGCAUCAAAAGAAAUAGUCUUGCGCUCAACCAGAAAGUCUGUAAUCAUUUUAAGGGUA [U3C U12C U37C A62G] | 0.67 |
| GUCAACGGCCAUAGGCCAUGGAAACUAGGAGCACCGUUUCGCUGCCAGUGAAGAAAUGGACAAAGAAAAUCUGGGCCAGGCAGGCAUCAAAAGAAAUAGUCUUGCGCUCAACCAGAAAGUCUGUAAUCAUUUUAAGGGUA [U3C U9C A36G A59G] | 0.21 |
| GUCAACGGUCAUAGGCCACGGAAACUAGGAGCACCAUUUCGCUGCCAGUGAAGAAAUGAACAAAGAAAAUCUGGGCCAGGCAGGCGUCAAAAGAAAUAGUCUUGCGCUCAACCAGAAAGUCGGUAAUCAUUUUAAGGGUA [U3C U19C A86G U122G] | 2.29 |
| GUCAACGGUCAUAGGCCACGGAAACUAGGAGCACCUUUUCGCUGCCAGUGAAGAAAUGGACAAAGAAAAUCUGGGCCAGGCAGGCAUCAAAAGAAAUAGUCUUGCGCUCAACCAGAAAGUCUGUAAUCAUUUUAAGGGUA [U3C U19C A36U A59G] | 0.58 |
| GUCAACGGUCAUAGGCCAUGGAAACUAGGAGCACCAUUUCGCUGCCAGUGAAGAAAUGAACAAAGAAAAUCUGGGCCAGGCAGGCAUCAAAAGAGAUAGUCUUGCGCUCCACCAGAAAGUCUGUAACCAUUUUAAGGGUA [U3C A95G A110C U127C] | 0.28 |
| GUCAACGGGCAUAGGCCAUGGAAACUAGGAGCACCAUUUCGCUGCCAGUGAAGAAAUGAACAAAGAAAAUCUGGGCCAGGCAGGCAUCAAAAGAAAUAGUCUUGUGCUCAACCAGAAAGUCUGUAAUCAUUUUAAGGGUA [U3C U9G C105U] | 0.3 |
| GUCAACGGCCAUAGGCCAUGGAAACUAGGAGCACCAUUUCGCUGCCAGUGAAGAAAUGAACAAAGAAAAUCUGGGCCAGGCAGGCAUCAAAAGAGAUAGUCUUGCGCUCAACCAGAAAGUAUGUAAUCAUUUUAAGGGUA [U3C U9C A95G C121A] | 2.23 |
| GUCAACGGUCAUAGGCCAUGGAAACUAGGAGCACCAUUUCGCUGCCAGUGAAGAAAUGAACAAAGAAAGUCUGGGCCAGGCAGGCAUCAAAAGAAAUAGUCUUGCGCUCGACCAGAAAGUCUGUAAUCAUUUUAAGGGUA [U3C A69G A110G] | 0.18 |
| GUCAACGGACAUAGGCCAUGGAAACUAGGAGCACCAUUUCGCUGCCAGUGAAGAAAUGAACAAGGAAAAUCUGGGCCAGGCAGGCAUCAAAAGAAAUAGUCUUGCGCUCAACCAGAAAGUCUGUAAUCAUUUUAAGGGUA [U3C U9A A64G] | 0.94 |
| GUCAACGGUCAUAGACCUUGGAAAAUAGGAGCACCAUUUCGCUGCCAGUGUAGAAAUGAACAAAGAAAAUCUGGGCCAGGCAGGCAUCAAAAGAAAUAGUCUUGCGCUCAACCAGAGAGUCAGUAAUCAUUUUAAGGGUA [U3C G15A A18U C25A A51U A117G U122A] | 0.92 |
| GUCAACGGUCAUAGGCCAUGGAAACUAGGAGCACCAUUUCGCUGCCAGUGAAGAAAUGAACAAAGAAAAUCUGGGCCAGGCAGGCAUCAGAAGAAAUAGUCUUGCGCUCAACCAGAAAGUCUGUAAUCAUUUUAAGGGUG [U3C A90G A140G] | 0.96 |
| GUCAACGGUCAUAGGCCAUGGAAACUAGGAGCACCAUCUCGCUGCCAGUGAAGACAUGAACAAAGGAAACCUGGGCCAGGCAGGCAUCAAAAGAAAUAGUCAUGCGCUCAACCAGAAAGUCUGUAAUCAUUUCAAGGGUA [U3C U38C A55C A66G U70C U102A U133C] | 0.16 |
| GUCAACGGUCAUAGGCCAUGGAAACUAGGAGCAUCAUUUCGCUGCCAGUGGAGAAAUGAGCAAAGAAAAUCUGGGCCAGGCAGGCAUCAAAAGAAAUAGUCUUGCGCUCAACCAGGAAGUCUGUAAUCAUUUUAAGGGUA [U3C C34U A51G A60G A116G] | 0.61 |
| GUCAACGGUCACAGGCCACGGAAACUAGGAGCACCAUUUCGCUGCCAGUGAAGAAAUGAACAAAGAAAAUCUGGGCCAGGCUGGCAUCAAAGGAAAUAGUCUUGCGCUCAACCAGAAAGUCUGUAGUCAUCUUAAGGGUA [U3C U12C U19C A82U A92G A126G U131C] | 0.09 |
| GUCAACGGUCAUAGGCCAUGGAAACUAGGAGCACCACUUCGCUGCCAGUGAAGGAAUGAGCAAAGAAAAUCUGGGCCAGGCAGGCAUCAAAAGAAAUAGUCUUGCGCUCAACCAGAAAGUCUGUAAUCAUUUUAAGGGUA [U3C U37C A54G A60G] | 2 |
| GUCAACGGUCAUAGGCCAUGGAAACUAGGAGCAUCAUUUCGCCGCCAGUGAGGAAAUGUACAAGGAAAACCUGGGCCAGGCAGGCAUCAAAAGAAAUAGUCUUGCGCUCAACCAGAAAGUCUGUAAUCAUUUUAAGGGUA [U3C C34U U43C A52G A59U A64G U70C] | 0.61 |
| GUCAACGGUCAUAGGCCAUGGAAACUAGGAGCACCAUUCCGCUGCCAAAGAGGAAAUGAACAAAGAAAAUCUGGGCCAGGCAGGCAUCAAAAGAAAUAGUCUUGCGCUCAACCAGAAAGUCUGUAAUCAUUUUAAGGGUA [U3C U39C G48A U49A A52G] | 1.27 |
| GUCAACGGUCAUAGGCCAUGGAAACUAGGAGCACCAUUUCGCUGCCAGUGAAGAAAUGAACAAAGAAAUUCUGGGCCAGGCAGGCAUCAAAAGAAAUUGUCUUGCGCUCAACCAGAAAGUCUGUAAUCAUUUUAAGGGUA [U3C A69U A98U] | 0.79 |
| GUCAACGGUCAUAGGCCAAGGAAACUAGGAGCACCAUUUCGCUGCCAGUGAAGAAAUGAACAGAGAAAAUCUGGGCCAGGCAGGCAUCAAAAGAAAUAGUCUUGCGCUCAACCAGAAGGUCUGUAAUCAUUUUAAGGGUA [U3C U19A A63G A118G] | 1.04 |
| GUCAACGGCCAUAGGCCAUGGAAACUAGGAGCACCAUUUCGCUGCCAGUGAAGAAAUGAACAAAGAAAAUCUGGGCCAGGCAGGCACCAAAAGAAAUAGUCUUGCGCUCAACCAGAAAGUCUGUAAUCAUUUUAAGGGUA [U3C U9C U87C] | 1.04 |

| Variant | self-cleavage |
| --- | --- |
| GUCAAUGGUCAUAGGCCAUGGAAGCUAGGAGCACCAUUUCGCUGCCAGUGAAGAAAUGAACAAAGAAAAUCUGGGCCAGGCAGGCAUCAAAAGAAAUAGUCCUGCGCUCAACCAGAAAGUCUGUAAUCAUUUUAAGGGUA [U3C C6U A24G U102C] | 1.44 |
| GUCAACGGUCAUAGGCCAUGGAAACUAGGAGCACCACUUCGCUGCCAGUGAAGAAAUGAACAAAGAAAAUCUGGGCCAGGCAGGCAUCAAAAGAAUUAGUCUUGCGCUCAACCAGAAAGUCUGUAAUCAUUUUAAGGGUA [U3C U37C A96U] | 1.27 |
| GUCAACGGUCAUAGGCCAUGGAAACUAGGAGCACCAUUUUGCUGCCAGUGAAGAAAUGAACAAAGAAAAUCUGGGCCAGGCAGGCAUCAAAAGAAACAGUCUUGCGCUCAACCAGAAAGUCUGUAAUCAUUUUAAGGGUA [U3C C40U U97C] | 0.8 |
| GUCAACGGUCAUAGGCCAUGGAAACUAGGAGCACCACUUCGCUGCCAGUGAAGAAAUGAACAAAGAAAAUCUGGGCCAGGCAGGCAUCAAAAGAAAUAGUCUUGCGCUCGACCAGAAAGUCUGUAAUCAUUUUAAGGGGA [U3C U37C A110G U139G] | 0.2 |
| GUCAACGGCCAUAGGCCAUGGAAACUAGGAGCACCAUUUCGUUGCCAGUGAAGAAAUGAACAAAGAAAAUCUGGGCCAGGCAGGCAUCAAAAGAAAUAGUCUUGCGCUCAACCAGAAAGUCUGUAAUCAUUUUAAGGGUA [U3C U9C C42U] | 1.2 |
| GUCAACGGUCAUAGACCAUGGAAACUAGGAGCACCAUUUCGCUGCCAGUGAAGAAAUGAACUAAGAAAAUCUGGGCCAGGCAGGCAUCAAAAGAAAUAGUCUUGCGCUCAACCAGAAAGUCCGUAAUCAUUUUAAGGGUA [U3C G15A A62U U122C] | 0.43 |
| GUCAACGGUCAUAGGCCAUGGAAACUAGGAGCACCAUUUCGCUGCCAGUGAAGAAAUGAACAAAGAAAAUCUGGGCCAGGCAGGCAUCAGAAGUAAUAGUCUUGCGCUCAACCAGAAAGUCUGUAAUCAUUUUAAGGGUA [U3C A90G A94U] | 0.85 |
| GUCAACGGUCAUAGGCCAUGGAAACUAGGAGCACCAUUUCGUUGCCAGUGAAGAAGUGAACAAAGAAAAUCUGGGCCUGGCAGGCUUCAAAAGAAGUAGUCUUGCGCUCUACCAGAAAGUCUGUAAUCAUUUUAAGGGUA [U3C C42U A56G A78U A86U A96G A110U] | 0.09 |
| GUCAACGGUCAUAGGCCAUGGAAACUAGGAGCACCAUUUCGCUGCCAGUGAAGAAAUGAACAAAGAAAAUCUGGGCCUGGCAGGCGUCAAAAGAAGUAGUCUUGCGCUCAACCAGAAAGUCUGUAAUCAUUUUAAGGGUA [U3C A78U A86G A96G] | 0.12 |
| GUCAACGGUCAUAGGCCAUGGAAACUAGGAGCACCACUUCGCUGCCAGUGAAGAAAUGAACAAAGAAAAUCUGGGCCAGGCAGGCACCAAAAGAAAUAGUCUUGCGCUCAACCAGAAGGUCUGUAAUCAUUUUAAGGGUA [U3C U37C U87C A118G] | 1.42 |
| GUCAACGGUCAUAGGCCAUGGAAACUAGGAGCACCAUUUCGCUGCCAGUGAAGAAAUGAACAAAGAAAAUCUGGGCCAGGCAGGCAUCAAAAGAAAUAGUCUUGCGCUCAACCAGAAAGUCUGUAGUCAUUUUAAGGGCA [U3C A126G U139C] | 0.88 |
| GUCAACGGUCAAAGGCCAUGGAAACUAGGAGCACCAUUUCGCUGCCAGUGAAGAAAUGAACAAAGAAAAUCUGUGCCAGGCAGGCAUCAAAAGAAAUAGUCUUGCGCUCAACCAGAAAGUCUGUAAUCAUUUUAAGGGUA [U3C U12A G74U] | 0.2 |
| GUCAACGGUCAUAGGCCAUGGAAACUAGGAGCACCACUUCGCUGCCAGUGAAGAAAUGAACAAAGAAAAUCUGGGCCAGGCUGGCAUCAAAAGAAAUAGUCUUGCGCUCAACCAGAAAGUCUGUAAUCAUUUUAAGGGUA [U3C U37C A82U] | 0.48 |
| GUCAACGGUCAUAGGCCAUGGAAACUAGGAGCACCAUUUCGCUGCCAGUGAAGAAAUGAACAAAGAAAAUCUGGGCCAGGCAGGCAUCAAAAGAAAUAGUCUUGCGCUCAGCCAGAAAGUCUGUAAUCAUUUUAAGGGUU [U3C A111G A140U] | 0.01 |
| GUCAACGGUCAUAGGCCAUGGAAACCAGGAGCACCAUUUCGCUGCCUGUGAAGAAAUGAACAAAGAAAAUCUGGGCCAGGCAGGCAUCAAAAGAAAUAGUCUUGCGCUCAACCAGAAGGUCUGUAAUCAUUUUAAGGGUA [U3C U26C A47U A118G] | 0.64 |
| GUCAACGGUCAUAGGCCAUGGAAACUAGGAGCACCACUUCGCUGCCAGUGAAGAAAUGAACAAAGAAGAUCUGGGCCAGGCAGGCAUCAAAAGAAAUAGUCUUGCGCUCAACCAGAAAGUCUGUAAUCAUUUUAAGGGUA [U3C U37C A68G] | 0.66 |
| GUCAACGGUCAUAGGCCAUGGAAACUAGGAGCACCAUCUCGCUGCCAGUGAAGAAAUGGACAAAGAAAAUCUGAGCCAGGUAGGCAUCAAAAGAAAUAGUCUUGCGCUCAACCAGAAAGUCUGUAAUCAUUUUAAGGGUA [U3C U38C A59G G74A C81U] | 0.14 |
| GUCAACGGUCAUAGGCCAUGGAAACUAGGAGCACCAAUUCGCUGCCAGCGAAGAAAUGAACAUAGAAAAUCUGGGCCAGGCAGGCAUCGAAAGAAAUAGUCUUGCGCUCAACCAGAAAGUCUGUAAUCAUUUUAAGGGUA [U3C U37A U49C A63U A89G] | 0.44 |
| GUCAACGGUCAUAGGCCAUGGAAACUAGGAGCACCAUUUCGCUGCCAGUGAAGAAAUGAACAAAGAAAAUCUGGGCCGGGCAGGCAUCAAAAGAAAUAGUCUUGCGCACAACCAGAAAGUCUGUAAUCAUUUUAAGGGUA [U3C A78G U108A] | 0.03 |
| GUCAACGGUCAUAGGCCAUGGAAACUAGGAGCACCAUCUCGCUGCCGGUGAAGAAAUGAACAAAGAAAAUCUGGGCCAGGCAGGCAUCAAAAGAAAUAGUCUUGCGCUCAACCAGAAAGUCUGUAAUCAUUUUGAGGGUA [U3C U38C A47G A134G] | 0.79 |
